{"source": "the supplement of paper PMC3334620", "note": "Over roughly 33,000 sequences, “E-score (-0.5 to 0.5)” has its median near -0.017; the highest 2% begin near 0.3. This is one part of the list."}
{"molecular_target": "T1, Sut1 (UniProt P53032)", "T1 sequence": "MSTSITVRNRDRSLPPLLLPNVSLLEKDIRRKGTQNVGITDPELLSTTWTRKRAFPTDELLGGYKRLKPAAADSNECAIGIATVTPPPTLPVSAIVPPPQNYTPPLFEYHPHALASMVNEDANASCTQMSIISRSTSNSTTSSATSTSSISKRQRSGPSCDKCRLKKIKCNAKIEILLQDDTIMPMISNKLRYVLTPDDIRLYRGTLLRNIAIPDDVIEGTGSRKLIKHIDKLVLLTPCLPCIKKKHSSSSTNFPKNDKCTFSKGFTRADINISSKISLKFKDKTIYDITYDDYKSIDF", "test": "PBM E-score (8-mer binding enrichment) (E-score (-0.5 to 0.5)); higher = stronger / more preferred TF binding; most listed sequences are background and not binding sites", "settings": "protein concentration: 200 nM; construct: GST-full length", "outline": "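Each ungapped eight-base word and its reverse complement, pooled, received an E-score from the Universal PBM Analysis Suite. Underlying scans, normalised with masliner, recorded fluorescent anti-GST bound to GST-tagged yeast transcription factors. These were applied at about 100-200 nM to universal all-10-mer Agilent arrays double-stranded by primer extension.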"}
{"sequence": "AGCTGCCC", "PBM E-score": -0.124}
{"sequence": "AGCGTAGA", "PBM E-score": 0.0222}
{"sequence": "ATAAGTGA", "PBM E-score": 0.116}
{"sequence": "ACAACGGA", "PBM E-score": 0.335}
{"sequence": "ATCACATG", "PBM E-score": -0.0223}
{"sequence": "CCCCTCGG", "PBM E-score": -0.191}
{"sequence": "AGATGGCT", "PBM E-score": -0.0121}
{"sequence": "AAGCTCAC", "PBM E-score": -0.0863}
{"sequence": "ATTCATTG", "PBM E-score": 0.108}
{"sequence": "GCTTGCGA", "PBM E-score": -0.0868}
{"sequence": "ACCACGAC", "PBM E-score": -0.12}
{"sequence": "CTGATCCC", "PBM E-score": -0.15}
{"sequence": "CTACATAG", "PBM E-score": 0.00166}
{"sequence": "ACGGGACC", "PBM E-score": -0.112}
{"sequence": "CTCGAGGA", "PBM E-score": -0.159}
{"sequence": "ACATGGTG", "PBM E-score": -0.0356}
{"sequence": "AAGAGCAT", "PBM E-score": -0.0261}
{"sequence": "AGTATCAG", "PBM E-score": -0.0501}
{"sequence": "ATGGCAAG", "PBM E-score": -0.2}
{"sequence": "CCCGAACG", "PBM E-score": 0.0466}
{"sequence": "CAAAATGG", "PBM E-score": 0.215}
{"sequence": "AGCGCTTC", "PBM E-score": 0.135}
{"sequence": "ACCCGGGT", "PBM E-score": -0.0446}
{"sequence": "CACTTGGG", "PBM E-score": -0.0572}
{"sequence": "TAACGGAA", "PBM E-score": 0.309}
{"sequence": "CGTTACGC", "PBM E-score": -0.0584}
{"sequence": "TGCCACAA", "PBM E-score": -0.0221}
{"sequence": "CAACATTC", "PBM E-score": -0.185}
{"sequence": "CCCCCTTC", "PBM E-score": -0.401}
{"sequence": "CTAAAAGC", "PBM E-score": 0.0247}
{"sequence": "AAATGTTC", "PBM E-score": 0.139}
{"sequence": "AACCCATG", "PBM E-score": -0.0261}
{"sequence": "ATTCCGCA", "PBM E-score": -0.00724}
{"sequence": "CTTTGAGA", "PBM E-score": 0.168}
{"sequence": "CAGCAACC", "PBM E-score": -0.116}
{"sequence": "TACTATAA", "PBM E-score": 0.306}
{"sequence": "CGAGAGCG", "PBM E-score": -0.16}
{"sequence": "CAGGCGCG", "PBM E-score": -0.252}
{"sequence": "CCGCTCCG", "PBM E-score": 0.262}
{"sequence": "ACTCGGAG", "PBM E-score": 0.399}
{"sequence": "GTTTACGA", "PBM E-score": -0.075}
{"sequence": "ACCCATAT", "PBM E-score": -0.104}
{"sequence": "AACGATGA", "PBM E-score": 0.0705}
{"sequence": "ACCTGATC", "PBM E-score": -0.177}
{"sequence": "AACGCTTG", "PBM E-score": -0.135}
{"sequence": "TATCAAGA", "PBM E-score": 0.2}
{"sequence": "ACAGAACC", "PBM E-score": 0.0597}
{"sequence": "TGTATAAA", "PBM E-score": 0.157}
{"sequence": "AAACCCTC", "PBM E-score": -0.27}
{"sequence": "CTGACTCC", "PBM E-score": 0.215}
{"sequence": "GCACGGTA", "PBM E-score": -0.169}
{"sequence": "ACGAGAAC", "PBM E-score": -0.00525}
{"sequence": "CTCTTAAC", "PBM E-score": 0.042}
{"sequence": "ACATTTAA", "PBM E-score": 0.293}
{"sequence": "ACGATATG", "PBM E-score": 0.0604}
{"sequence": "GCCCGCAC", "PBM E-score": -0.0922}
{"sequence": "ATGTACGC", "PBM E-score": -0.107}
{"sequence": "GCAATCAC", "PBM E-score": 0.00086}
{"sequence": "AATGAGGC", "PBM E-score": -0.21}
{"sequence": "ATTCCCAC", "PBM E-score": -0.152}
{"sequence": "AAAGGCGG", "PBM E-score": 0.0481}
{"sequence": "TAGGCAAA", "PBM E-score": -0.0422}
{"sequence": "GCACTTCC", "PBM E-score": -0.146}
{"sequence": "CTGATTGA", "PBM E-score": -0.133}
{"sequence": "AAACCACT", "PBM E-score": -0.0395}
{"sequence": "GCCCGGAC", "PBM E-score": 0.328}
{"sequence": "AATAGCGA", "PBM E-score": 0.105}
{"sequence": "CCTCCGAA", "PBM E-score": 0.121}
{"sequence": "GAACAGGC", "PBM E-score": -0.129}
{"sequence": "AATACCTG", "PBM E-score": -0.0173}
{"sequence": "ACTCGCTA", "PBM E-score": 0.0713}
{"sequence": "AATAGGTC", "PBM E-score": -0.00254}
{"sequence": "ACCGATTA", "PBM E-score": 0.244}
{"sequence": "ATAAGCGA", "PBM E-score": 0.158}
{"sequence": "ACGCACAC", "PBM E-score": 0.133}
{"sequence": "AGTGTGAT", "PBM E-score": -0.0982}
{"sequence": "CGTCACAG", "PBM E-score": -0.211}
{"sequence": "CGGGGAGC", "PBM E-score": -0.0746}
{"sequence": "CGCACGAC", "PBM E-score": -0.215}
{"sequence": "ATTGCACA", "PBM E-score": -0.0797}
{"sequence": "GAGAAGTA", "PBM E-score": 0.148}
{"sequence": "CCTGTCAC", "PBM E-score": -0.112}
{"sequence": "AACCGTTC", "PBM E-score": 0.183}
{"sequence": "AGGTGGGC", "PBM E-score": -0.313}
{"sequence": "AGTCGAAT", "PBM E-score": -0.0274}
{"sequence": "ACCCACCT", "PBM E-score": -0.259}
